Assay results reported in the supplement of paper PMC4604168 (melanoma cell lines).
The other results are listed elsewhere or left out. Many values rest on one well or one pass, so single values are uncertain.

Key:
Assay in all cases: cell count relative to DMSO control; melanoma cells; higher = more viable cells
Details in all cases: library dose: low library concentration; 72 h
MZ2-MEL = system: MZ2-MEL
MeWo = system: MeWo
RPMI7951 = system: RPMI7951
RVH-421 = system: RVH-421
SkMel28 = system: SkMel28
SkMel2 = system: SkMel2
SkMel30 = system: SkMel30
UACC62 = system: UACC62
WM115 = system: WM115
WM1716 = system: WM1716
WM1745 = system: WM1745
WM3526 = system: WM3526
WM3619 = system: WM3619
WM451Lu = system: WM451Lu
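Also: cell number obtained by counting DAPI-stained nuclei in high-throughput microscope images with image analysis software, screen run in 1,536-well plates.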

Compound	cell count (MZ2-MEL) [%]	cell count (MeWo) [%]	cell count (RPMI7951) [%]	cell count (RVH-421) [%]	cell count (SkMel28) [%]	cell count (SkMel2) [%]	cell count (SkMel30) [%]	cell count (UACC62) [%]	cell count (WM115) [%]	cell count (WM1716) [%]	cell count (WM1745) [%]	cell count (WM3526) [%]	cell count (WM3619) [%]	cell count (WM451Lu) [%]
C[C@@H](Oc1cc(-c2cnn(C3CCNCC3)c2)cnc1N)c1c(Cl)ccc(F)c1Cl [Crizotinib] + C[C@]1(c2nc3c(C(N)=O)cccc3[nH]2)CCCN1 [Veliparib] (first compound 0.2 µM, partner dose 1.4 µM)	97.3	89.4	91.6	107	86.6	92.9	76.6	81.4	83.9	92.1	86.7	89.4	106	110
C=CCNC1=C2C[C@@H](C)C[C@H](OC)[C@H](O)[C@@H](C)/C=C(\C)[C@H](OC(N)=O)[C@@H](OC)/C=C\C=C(/C)C(=O)NC(=CC1=O)C2=O [Tanespimycin] + COCC[n+]1c2c(n(Cc3cnccn3)c1C)C(=O)c1ccccc1C2=O [YM155] (first compound 0.002 µM, partner dose 0.0004 µM)	65	106	89.1	91.5	97.8	92.2	105	91.3	111	99.5	97.5	104	107	76.3
CNC(=O)c1cc(Oc2ccc(NC(=O)Nc3ccc(Cl)c(C(F)(F)F)c3)cc2)ccn1 [sorafenib] + Cn1c(Nc2ccc(C(F)(F)F)cc2)nc2cc(Oc3ccnc(-c4ncc(C(F)(F)F)[nH]4)c3)ccc21 [CHIR265] (first compound 0.4 µM, partner dose 0.08 µM)	97.8	70.8	63	75.9	81.6	78.5	79	63.5	66.4	87.6	69.8	58.4	82.2	101
CS(=O)(=O)CCNCc1ccc(-c2ccc3ncnc(Nc4ccc(OCc5cccc(F)c5)c(Cl)c4)c3c2)o1 [lapatinib] + C=C(c1ccc(C(=O)O)cc1)c1cc2c(cc1C)C(C)(C)CCC2(C)C [Bexarotene] (first compound 0.8 µM, partner dose 2 µM)	110	86.5	86.5	98.4	76.7	93.9	103	95.2	97.9	93.1	105	95.6	100	92.6
CS(=O)(=O)CCNCc1ccc(-c2ccc3ncnc(Nc4ccc(OCc5cccc(F)c5)c(Cl)c4)c3c2)o1 [lapatinib] + CC(=O)c1c(C)c2cnc(Nc3ccc(N4CCNCC4)cn3)nc2n(C2CCCC2)c1=O [palbociclib] (first compound 0.8 µM, partner dose 0.04 µM)	85.9	78.7	76.3	111	71.8	91.9	82.6	87.8	89.6	75.4	75	55.4	66.2	86.2
CN1CCN(c2ccc3nc(-c4c(N)c5c(F)cccc5[nH]c4=O)[nH]c3c2)CC1 [Dovitinib] + COc1ccc(Cl)c(Nc2nc3ccccc3nc2NS(=O)(=O)c2cccc(NC(=O)C(C)(C)N)c2)c1 [XL147] (first compound 0.1 µM, partner dose 0.8 µM)	91.6	90.7	104	112	103	96.2	74.1	88.4	88.4	103	76.9	100	78.4	113
CN1CCN(c2ccc3nc(-c4c(N)c5c(F)cccc5[nH]c4=O)[nH]c3c2)CC1 [Dovitinib] + COCC[n+]1c2c(n(Cc3cnccn3)c1C)C(=O)c1ccccc1C2=O [YM155] (first compound 0.1 µM, partner dose 0.0004 µM)	75.6	80.2	94.1	103	81.5	98.5	68.5	83.7	97.8	110	87.3	75.4	84.8	68.1
C=CCNC1=C2C[C@@H](C)C[C@H](OC)[C@H](O)[C@@H](C)/C=C(\C)[C@H](OC(N)=O)[C@@H](OC)/C=C\C=C(/C)C(=O)NC(=CC1=O)C2=O [Tanespimycin] + Clc1ccc(Nc2nnc(Cc3ccncc3)c3ccccc23)cc1 [vatalanib] (first compound 0.002 µM, partner dose 2 µM)	94.4	77.4	71.9	87.8	79.7	106	97.6	84.9	82	98.8	75.2	92.4	59.2	79.2
CS(=O)(=O)CCNCc1ccc(-c2ccc3ncnc(Nc4ccc(OCc5cccc(F)c5)c(Cl)c4)c3c2)o1 [lapatinib] + O=C(O)c1ccc2c(c1)nc(Nc1cccc(Cl)c1)c1ccncc12 [CX4945] (first compound 0.8 µM, partner dose 0.4 µM)	86.8	99.6	97.2	105	106	92.3	87.5	86.2	100	101	111	87.6	108	113
CN1CCN(c2ccc3nc(-c4c(N)c5c(F)cccc5[nH]c4=O)[nH]c3c2)CC1 [Dovitinib] + C=CCNC1=C2C[C@@H](C)C[C@H](OC)[C@H](O)[C@@H](C)/C=C(\C)[C@H](OC(N)=O)[C@@H](OC)/C=C\C=C(/C)C(=O)NC(=CC1=O)C2=O [Tanespimycin] (first compound 0.1 µM, partner dose 0.002 µM)	97.4	89.5	105	119	82.8	101	66.4	96.4	103	111	99.8	88.4	89.8	102
CNC(=O)c1cc(Oc2ccc(NC(=O)Nc3ccc(Cl)c(C(F)(F)F)c3)cc2)ccn1 [sorafenib] + COc1ccc(Cl)c(Nc2nc3ccccc3nc2NS(=O)(=O)c2cccc(NC(=O)C(C)(C)N)c2)c1 [XL147] (first compound 0.4 µM, partner dose 0.8 µM)	87.3	83	74	86.8	105	92	85.4	111	98.2	86.3	81.8	121	75.4	144
C[C@@H](Oc1cc(-c2cnn(C3CCNCC3)c2)cnc1N)c1c(Cl)ccc(F)c1Cl [Crizotinib] + CS(=O)(=O)CCNCc1ccc(-c2ccc3ncnc(Nc4ccc(OCc5cccc(F)c5)c(Cl)c4)c3c2)o1 [lapatinib] (first compound 0.2 µM, partner dose 0.8 µM)	90.6	88.3	85.4	85.2	89.6	85.9	76.9	92.7	96	90.7	72.2	87.3	85.7	90
CN1CCN(c2ccc3nc(-c4c(N)c5c(F)cccc5[nH]c4=O)[nH]c3c2)CC1 [Dovitinib] + CS(=O)(=O)CCNCc1ccc(-c2ccc3ncnc(Nc4ccc(OCc5cccc(F)c5)c(Cl)c4)c3c2)o1 [lapatinib] (first compound 0.1 µM, partner dose 0.8 µM)	84.3	87.2	98.7	93.4	74.8	98.8	61.5	84.8	95.1	111	86.7	103	95.3	101
CS(=O)(=O)CCNCc1ccc(-c2ccc3ncnc(Nc4ccc(OCc5cccc(F)c5)c(Cl)c4)c3c2)o1 [lapatinib] + Nc1ncn([C@H]2C[C@H](O)[C@@H](CO)O2)c(=O)n1 [decitabine] (first compound 0.8 µM, partner dose 0.1 µM)	83.3	106	92.9	91.5	81.2	101	108	85.3	99.2	91.9	106	106	83.5	119
CN1CCN(c2ccc3nc(-c4c(N)c5c(F)cccc5[nH]c4=O)[nH]c3c2)CC1 [Dovitinib] + O=C(O)[C@@H]1[O][Sb](=[O])([O][Sb]2(=[O])[O][C@H]([C@H](O)CO)[C@H](O)[C@H](C(=O)O)[O]2)[O][C@H]([C@H](O)CO)[C@@H]1O [stibogluconate] (first compound 0.1 µM, partner dose 2 µM)	103	97.7	86.7	152	90.1	103	96.2	80.2	99.1	79.5	95.1	94.7	112	126
CNC(=O)c1cc(Oc2ccc(NC(=O)Nc3ccc(Cl)c(C(F)(F)F)c3)cc2)ccn1 [sorafenib] + OCc1c[nH]c2ccccc12 [Indole-3-carbinol] (first compound 0.4 µM, partner dose 0.8 µM)	79.2	85.7	92	89.3	96.2	108	112	99.4	104	86.4	97.8	109	85.8	125
CN1CCN(c2ccc3nc(-c4c(N)c5c(F)cccc5[nH]c4=O)[nH]c3c2)CC1 [Dovitinib] + CCCS(=O)(=O)Nc1ccc(F)c(C(=O)c2c[nH]c3ncc(Cl)cc23)c1F [PLX4720] (first compound 0.1 µM, partner dose 0.08 µM)	85.2	83.9	109	87.2	80.5	101	66	72.7	94.2	105	74.1	65.5	108	86.7
